Reference: the supplement of paper PMC4604168 (melanoma cell lines)
The list shows a part of the results. Repeats are few or missing, and single values can be far off.

Legend:
Test in all cases: cell count relative to DMSO control; melanoma cells; higher = more viable cells
Conditions in all cases: library dose: standard library concentration; 72 h
G361 = system: G361
IPC-298 = system: IPC-298
IST-MEL1 = system: IST-MEL1
LB2518-MEL = system: LB2518-MEL
LOXIMVI = system: LOXIMVI
MEL-HO = system: MEL-HO
MZ2-MEL = system: MZ2-MEL
MeWo = system: MeWo
RPMI7951 = system: RPMI7951
RVH-421 = system: RVH-421
SkMel28 = system: SkMel28
SkMel2 = system: SkMel2
SkMel30 = system: SkMel30
SkMel5 = system: SkMel5
UACC257 = system: UACC257
UACC62 = system: UACC62
WM115 = system: WM115
WM1716 = system: WM1716
WM1745 = system: WM1745
WM3526 = system: WM3526
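Note: cells treated in 1,536-well plates, then fixed and DAPI-stained, with nuclei counted from automated high-throughput microscope images.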

| Compound | cell count (G361) [%] | cell count (IPC-298) [%] | cell count (IST-MEL1) [%] | cell count (LB2518-MEL) [%] | cell count (LOXIMVI) [%] | cell count (MEL-HO) [%] | cell count (MZ2-MEL) [%] | cell count (MeWo) [%] | cell count (RPMI7951) [%] | cell count (RVH-421) [%] | cell count (SkMel28) [%] | cell count (SkMel2) [%] | cell count (SkMel30) [%] | cell count (SkMel5) [%] | cell count (UACC257) [%] | cell count (UACC62) [%] | cell count (WM115) [%] | cell count (WM1716) [%] | cell count (WM1745) [%] | cell count (WM3526) [%] |
| --- | --- | --- | --- | --- | --- | --- | --- | --- | --- | --- | --- | --- | --- | --- | --- | --- | --- | --- | --- | --- |
| COc1cc2c(Oc3ccc4[nH]c(C)cc4c3F)ncnc2cc1OCCCN1CCCC1 [cediranib] + Oc1nc(-c2ccc(C(F)(F)F)cc2)nc2c1CSCC2 [XAV939] (first compound 2 µM, partner dose 10 µM) | 78.9 | 94.3 | 99.1 | 109 | 91.2 | 91.2 | 89.3 | 85.5 | 72.5 | 93.4 | 83.1 | 99 | 93.5 | 88 | 79.3 | 100 | 95.4 | 78.1 | 69.2 | 96.8 |
| NC(=O)c1ccc(N(C(N)=O)c2c(F)cccc2F)nc1-c1ccc(F)cc1F + Cc1ccc(NC(=O)c2cccc(N(C)C)c2)cc1NC(=O)c1ccc(O)cc1 [ZM336372] (first compound 2 µM, partner dose 10 µM) | 86.3 | 84.9 | 80.9 | 94.5 | 88.7 | 89 | 93.1 | 77.7 | 53 | 89.9 | 75 | 81.2 | 96.4 | 68.9 | 91.7 | 76.8 | 80.9 | 90 | 94.8 | 66.4 |
| CN(NC(=O)CC(=O)NN(C)C(=S)c1ccccc1)C(=S)c1ccccc1 + CCN(CC)CCCCNc1ncc2cc(-c3cc(OC)cc(OC)c3)c(NC(=O)NC(C)(C)C)nc2n1 [PD173074] (first compound 0.03 µM, partner dose 0.5 µM) | 50.6 | 78.6 | 52 | 36.4 | 76.3 | 91.5 | 83.4 | 16.4 | 87.6 | 71.9 | 28.9 | 76.7 | 78.6 | 34.3 | 95.7 | 49.4 | 20.4 | 86.3 | 17.3 | 76.2 |
| NC(=O)c1ccc(N(C(N)=O)c2c(F)cccc2F)nc1-c1ccc(F)cc1F + CN(C)S(=O)(=O)c1ccc2c(c1)/C(=C/c1cc3c([nH]1)CCCC3)C(=O)N2 [SU6656] (first compound 2 µM, partner dose 2 µM) | 73.2 | 73.7 | 72.3 | 71.1 | 102 | 92.9 | 95.6 | 78.2 | 37.7 | 92.3 | 57.4 | 72.8 | 70.5 | 86.3 | 85.2 | 66.2 | 41.9 | 56.6 | 62 | 79 |
| COc1cc2c(Oc3ccc4[nH]c(C)cc4c3F)ncnc2cc1OCCCN1CCCC1 [cediranib] + COc1ccc2c(c1)CCC1C2CCC2(C)C(NCCCCCCN3C(=O)C=CC3=O)CCC12 [U73122] (first compound 2 µM, partner dose 2 µM) | 107 | 111 | 110 | 87.7 | 48 | 100 | 101 | 52 | 47.7 | 68.4 | 143 | 103 | 82.7 | 69.2 | 83.6 | 63.2 | 79.8 | 89.2 | 93.8 | 86.1 |
| Cc1ccc(NC(=O)c2cccc(N(C)C)c2)cc1NC(=O)c1ccc(O)cc1 + O=C1NC(=O)/C(=C/c2ccc(-c3ccc(F)cc3O)o2)S1 [AS252424] (first compound 10 µM, partner dose 5 µM) | 78.9 | 84.5 | 87.3 | 112 | 108 | 75.3 | 88.1 | 81.1 | 83 | 101 | 102 | 85.6 | 104 | 83.8 | 96.3 | 112 | 94.2 | 101 | 89 | 82.3 |
| CC(C)(C)c1cnc(CSc2cnc(NC(=O)C3CCNCC3)s2)o1 + O=C(O)c1ccc(-c2c[nH]c3ncc(-c4ccccc4)cc23)cc1C1CCCC1 [GSK650394] (first compound 0.05 µM, partner dose 0.8 µM) | 54.8 | 92.1 | 82.7 | 81.9 | 88 | 76.4 | 82.1 | 75.6 | 41.3 | 84 | 48.6 | 74.6 | 84.8 | 78.1 | 73.6 | 61.3 | 93 | 79.2 | 83.5 | 81.8 |
| CCc1ccc(CCOc2ccc(CC3SC(=O)NC3=O)cc2)nc1 (stereo not given) [pioglitazone] + Oc1nc(-c2ccc(C(F)(F)F)cc2)nc2c1CSCC2 [XAV939] (first compound 10 µM, partner dose 10 µM) | 94.9 | 88.3 | 95 | 93 | 99.9 | 93.6 | 79 | 99.4 | 66.9 | 95.2 | 67.5 | 95.6 | 90.6 | 82.3 | 76.8 | 115 | 102 | 77.7 | 70.7 | 97.2 |
| NC(=O)c1ccc(N(C(N)=O)c2c(F)cccc2F)nc1-c1ccc(F)cc1F + CC(=O)c1c(C)c2cnc(Nc3ccc(N4CCNCC4)cn3)nc2n(C2CCCC2)c1=O [palbociclib] (first compound 2 µM, partner dose 0.2 µM) | 73.4 | 75 | 98.4 | 73.5 | 87.4 | 88.5 | 79.3 | 68.2 | 74.2 | 56.9 | 64.3 | 78.7 | 83.5 | 85.5 | 110 | 80 | 74.3 | 47.3 | 79.2 | 63.2 |
| CCCCCCCCc1ccc(CCC(N)(CO)CO)cc1 [fingolimod] + CO[C@H]1C[C@@H]2CC[C@@H](C)[C@@](O)(O2)C(=O)C(=O)N2CCCC[C@H]2C(=O)O[C@H]([C@H](C)C[C@@H]2CC[C@@H](OCCO)[C@H](OC)C2)CC(=O)[C@H](C)/C=C(\C)[C@@H](O)[C@@H](OC)C(=O)[C@H](C)C[C@H](C)/C=C/C=C/C=C/1C [everolimus] (first compound 10 µM, partner dose 0.1 µM) | 0.84 | 44.8 | 7.83 | 0.204 | 13 | 44.8 | 3.99 | 14.8 | 2.19 | 2.85 | 3.97 | 0.476 | 15.1 | 55.9 | 55.2 | 8.69 | 6.85 | 17 | 22.3 | 40.9 |
| CCc1ccc(CCOc2ccc(CC3SC(=O)NC3=O)cc2)nc1 (stereo not given) [pioglitazone] + COc1ccc2c(c1)CCC1C2CCC2(C)C(NCCCCCCN3C(=O)C=CC3=O)CCC12 [U73122] (first compound 10 µM, partner dose 2 µM) | 65.9 | 85.2 | 81.9 | 85.8 | 50.2 | 78.2 | 89.4 | 56.4 | 17.7 | 86.9 | 61.7 | 79.3 | 91.3 | 90.7 | 78.2 | 37.5 | 77.1 | 64.6 | 68.2 | 77.3 |
| CCc1ccc(CCOc2ccc(CC3SC(=O)NC3=O)cc2)nc1 (stereo not given) [pioglitazone] + Oc1cc(-c2nc(-c3ccccc3)[nH]c2-c2ccncc2)ccc1Cl [L779450] (first compound 10 µM, partner dose 1 µM) | 58.2 | 78.7 | 90.4 | 85.8 | 83.3 | 75.3 | 88.2 | 80.9 | 91.1 | 71.9 | 35.1 | 27.4 | 80.3 | 64.5 | 96.7 | 47.1 | 47.1 | 68.6 | 53.9 | 62.6 |
| NC(=O)c1ccc(N(C(N)=O)c2c(F)cccc2F)nc1-c1ccc(F)cc1F + Cn1c(=O)n(-c2ccc(C(C)(C)C#N)cc2)c2c3cc(-c4cnc5ccccc5c4)ccc3ncc21 [NVP-BEZ235] (first compound 2 µM, partner dose 0.02 µM) | 49.1 | 78.4 | 80.2 | 75.4 | 52.9 | 77.1 | 82.5 | 57.5 | 60.1 | 72 | 41.6 | 75 | 66.3 | 54.3 | 99.5 | 53.5 | 76.6 | 74.2 | 80.6 | 69 |
| Cc1ccc(NC(=O)c2cccc(N(C)C)c2)cc1NC(=O)c1ccc(O)cc1 + COc1cc2ncnc(Nc3ccc(Oc4ccccc4)cc3)c2cc1OC [SrcI1] (first compound 10 µM, partner dose 10 µM) | 34.8 | 81.1 | 80.5 | 102 | 74.5 | 72.3 | 67.5 | 74.4 | 43.8 | 76 | 41.8 | 88.5 | 103 | 66.9 | 61.8 | 73.2 | 67.6 | 78.1 | 41.3 | 55.1 |
| CCc1ccc(CCOc2ccc(CC3SC(=O)NC3=O)cc2)nc1 (stereo not given) [pioglitazone] + O=C(Nc1ccccc1)c1cc([N+](=O)[O-])ccc1Cl [GW9662] (first compound 10 µM, partner dose 10 µM) | 66 | 84.9 | 93.7 | 81.9 | 62.8 | 86.2 | 94.2 | 90.9 | 77.1 | 77.4 | 76.1 | 78.8 | 68.3 | 75.8 | 83.9 | 68.9 | 84.7 | 106 | 74.9 | 92.8 |
| Cc1ccc(NC(=O)c2cccc(N(C)C)c2)cc1NC(=O)c1ccc(O)cc1 + Cn1cc(/C=C2\C(=O)Nc3cccnc32)c2ccccc21 [GW441756] (first compound 10 µM, partner dose 2 µM) | 78.7 | 74.2 | 95.6 | 80.2 | 81.5 | 89.6 | 83.3 | 101 | 64.5 | 86.7 | 80.7 | 90.4 | 86.6 | 84.6 | 84.7 | 96.7 | 99.7 | 105 | 70.6 | 92.9 |
| CC(C)(C)c1cnc(CSc2cnc(NC(=O)C3CCNCC3)s2)o1 + CCN(CC)CCCCNc1ncc2cc(-c3cc(OC)cc(OC)c3)c(NC(=O)NC(C)(C)C)nc2n1 [PD173074] (first compound 0.05 µM, partner dose 0.5 µM) | 100 | 95.9 | 99.3 | 68.5 | 50.3 | 88 | 65.2 | 85.8 | 16.6 | 66.6 | 42.8 | 60.7 | 109 | 51.5 | 80.9 | 71.7 | 73.2 | 70.2 | 82.7 | 86.6 |
| COc1cc2c(Oc3ccc4[nH]c(C)cc4c3F)ncnc2cc1OCCCN1CCCC1 [cediranib] + CCN(CC)CCCCNc1ncc2cc(-c3cc(OC)cc(OC)c3)c(NC(=O)NC(C)(C)C)nc2n1 [PD173074] (first compound 2 µM, partner dose 0.5 µM) | 117 | 98.1 | 98.4 | 97.3 | 84.5 | 112 | 113 | 102 | 66 | 87.9 | 83.2 | 110 | 84.6 | 73.5 | 112 | 76.7 | 97.4 | 114 | 83.6 | 86.4 |
